This is an account of results in the supplement of paper PMC3334620.

In all, about 33,000 sequences were measured (“E-score (-0.5 to 0.5)”: median about -0.011, highest 2% from about 0.28 on). Some of the results follow.

The assay addresses T1, Gcr1 (UniProt P07261).
T1 sequence: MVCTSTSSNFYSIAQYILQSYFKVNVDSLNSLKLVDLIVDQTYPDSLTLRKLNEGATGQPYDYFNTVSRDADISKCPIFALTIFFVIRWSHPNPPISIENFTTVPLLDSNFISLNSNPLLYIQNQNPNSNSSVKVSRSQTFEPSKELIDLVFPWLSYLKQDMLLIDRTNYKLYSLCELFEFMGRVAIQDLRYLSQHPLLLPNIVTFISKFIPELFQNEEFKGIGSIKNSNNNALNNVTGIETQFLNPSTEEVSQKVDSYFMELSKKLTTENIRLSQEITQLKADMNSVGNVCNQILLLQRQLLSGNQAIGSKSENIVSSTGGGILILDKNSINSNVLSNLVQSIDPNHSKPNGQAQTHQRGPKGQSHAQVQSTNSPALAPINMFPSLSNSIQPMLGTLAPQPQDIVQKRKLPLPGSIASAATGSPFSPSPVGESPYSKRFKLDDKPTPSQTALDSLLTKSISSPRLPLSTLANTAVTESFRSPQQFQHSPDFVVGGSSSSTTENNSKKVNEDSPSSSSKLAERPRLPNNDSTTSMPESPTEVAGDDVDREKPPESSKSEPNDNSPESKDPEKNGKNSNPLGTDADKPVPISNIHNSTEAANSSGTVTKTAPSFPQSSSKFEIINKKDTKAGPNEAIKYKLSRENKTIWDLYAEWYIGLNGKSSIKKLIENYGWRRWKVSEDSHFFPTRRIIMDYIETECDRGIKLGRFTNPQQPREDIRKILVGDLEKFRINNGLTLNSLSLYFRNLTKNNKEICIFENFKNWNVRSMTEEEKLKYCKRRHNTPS
The experiment in a line: PBM E-score (8-mer binding enrichment) (E-score (-0.5 to 0.5)); higher = stronger / more preferred TF binding; most listed sequences are background and not binding sites. As to conditions: protein concentration: 100 nM; construct: GST-full length. The protocol:
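Universal 'all 10-mer' protein binding microarrays (Agilent AMADID 015681) probed with GST-tagged S. cerevisiae TFs (full-length or DBD) made by in vitro transcription/translation (PURExpress), about 100-200 nM. Bound TF was detected with fluorescent anti-GST. Each ungapped 8-mer (which stands for itself and its reverse complement) is scored by the PBM enrichment score (E-score), a modified Wilcoxon-Mann-Whitney statistic from -0.5 to +0.5, computed with the Universal PBM Analysis Suite. Scale: above 0.35 generally sequence-specific binding.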
For the sequence CCCGTATC, the “PBM E-score” value came out at 0.123.
With TAGTCACA, the “PBM E-score” value is -0.155.
The value for GCCGGAAA was 0.0227.
The value for CCCCCGAA was -0.242.
The value for AAAGGAAT was 0.212.
As to AGCTGGCC, the “PBM E-score” value was -0.142.
Under GCGATTTA stands 0.0336.
In the case of GATAGGGC, the “PBM E-score” value was -0.111.
Under GAATCTAA stands 0.241; under CATCCTAC, 0.0683.
Under AGCCACTG stands 0.11.
Turning to CACGGCGC, the “PBM E-score” value came to 0.0796.
Under AACACAGA stands -0.193; under CTGGTTGC, 0.288; under GAATTAAC, 0.0789.
Under CAGTAGAC stands -0.134.
Regarding GGTGGTTA, the “PBM E-score” value was 0.0911.
With CCGTTGTC, the “PBM E-score” value turned out to be 0.0332.
With GGGCTCGA, the “PBM E-score” value is -0.0878.
AAAATTGG: the “PBM E-score” value was found to be 0.316.
Under ACGGCTAT stands -0.169.
The value for AAGGACAC was 0.0121; that for ACTGTCGC was -0.161; that for GGTAAAAA was 0.0355.
The value for TCTGATAA was 0.107; that for TATCCAAA was 0.0902; that for GCTAAAGA was 0.0814.
As for CTCTGTTC, the “PBM E-score” value was -0.0161.
Under CTAGAAAA stands 0.114; under CGATGGGC, -0.0735; under CAATACTC, 0.107.
Under ATGAGCTC stands 0.0604.
The value for CACGCGGC was 0.0651.
GTCGCAAC: the “PBM E-score” value was determined as 0.0865.
Regarding CTAACATA, the “PBM E-score” value is -0.048.
Under AAAGATTC stands 0.19; under AAGGTGAC, 0.0235.
Under GGATAATA stands 0.0492; under GGTGGAAA, -0.0398.
Regarding GTGCCTCA, the “PBM E-score” value was -0.167.
The value for GTCCTTTA was -0.00269; that for CGCGCCAG was 0.0313; that for GGCGGGAC was 0.0458.
Under ACCTCGTC stands 0.00754; under ACGTAGAT, -0.0123; under GATTCCAC, 0.382.
Under AGGACCAC stands -0.00932.
As for CACAAAGA, the “PBM E-score” value is 0.0455.
The value for GGCTTCGA was 0.196; that for GACGCTTA was 0.153; that for ACACTAGG was -0.176.
With CTCCATAC, the “PBM E-score” value came to 0.0401.
The value for GGGTACAC was -0.359; that for GCGCGTGA was 0.0577.
AAAACCAC: the “PBM E-score” value came out at 0.0465.
The value for CTCTTGTA was 0.0515; that for CCTCTCTA was -0.113.
The value for GGCACGGA was 0.0772; that for GGGAGCAA was -0.0386; that for AGTCGTAA was -0.133.
Consider GCCACGGC, for which the “PBM E-score” value is -0.17.
The value for GCTCCAGC was 0.0257; that for CATACAGC was -0.26; that for CCCAAGCA was -0.0163.
Under GAAGCTCC stands 0.309; under GATGAGCC, -0.29; under GACGGTAC, -0.0733.
The value for CAGATCTA was -0.0866; that for CACCATGA was 0.0189.
In the case of ATCACATA, the “PBM E-score” value was -0.0145.
The value for CACGGGTC was -0.138; that for CGCCCCTC was 0.11; that for ACAACGTC was -0.0807.
Under AGGTATGA stands 0.0361; under ATGCAACG, -0.128.
Under ATGATAAC stands -0.072.
In the case of GGGTGTTA, the “PBM E-score” value was -0.143.
The value for AGACGCTG was 0.254; that for GCCGTCCA was 0.128.
Consider CATCGCAG, for which the “PBM E-score” value is -0.106.
The value for ATAGATTA was 0.0365; that for GCCCGAAA was 0.206; that for CCGCTTTA was 0.207.
Under ACTGATCA stands -0.148; under AATTGCTC, -0.0937; under CGCGAACA, -0.00841.
